Laboratory results from publication PMC4336329 (PLoS ONE, 2015).
About 2,200 (0.71%) of roughly 310,000 compounds showed an effect of 50% or more. The effect is printed as a negative number. This is one part of the list.

target: human ether-à-go-go-related gene (hERG) potassium channel (human, UniProt Q12809); assay: primary screen, population patch clamp on CHO cells stably expressing hERG
Sequence (Q12809 whole entry, looked up): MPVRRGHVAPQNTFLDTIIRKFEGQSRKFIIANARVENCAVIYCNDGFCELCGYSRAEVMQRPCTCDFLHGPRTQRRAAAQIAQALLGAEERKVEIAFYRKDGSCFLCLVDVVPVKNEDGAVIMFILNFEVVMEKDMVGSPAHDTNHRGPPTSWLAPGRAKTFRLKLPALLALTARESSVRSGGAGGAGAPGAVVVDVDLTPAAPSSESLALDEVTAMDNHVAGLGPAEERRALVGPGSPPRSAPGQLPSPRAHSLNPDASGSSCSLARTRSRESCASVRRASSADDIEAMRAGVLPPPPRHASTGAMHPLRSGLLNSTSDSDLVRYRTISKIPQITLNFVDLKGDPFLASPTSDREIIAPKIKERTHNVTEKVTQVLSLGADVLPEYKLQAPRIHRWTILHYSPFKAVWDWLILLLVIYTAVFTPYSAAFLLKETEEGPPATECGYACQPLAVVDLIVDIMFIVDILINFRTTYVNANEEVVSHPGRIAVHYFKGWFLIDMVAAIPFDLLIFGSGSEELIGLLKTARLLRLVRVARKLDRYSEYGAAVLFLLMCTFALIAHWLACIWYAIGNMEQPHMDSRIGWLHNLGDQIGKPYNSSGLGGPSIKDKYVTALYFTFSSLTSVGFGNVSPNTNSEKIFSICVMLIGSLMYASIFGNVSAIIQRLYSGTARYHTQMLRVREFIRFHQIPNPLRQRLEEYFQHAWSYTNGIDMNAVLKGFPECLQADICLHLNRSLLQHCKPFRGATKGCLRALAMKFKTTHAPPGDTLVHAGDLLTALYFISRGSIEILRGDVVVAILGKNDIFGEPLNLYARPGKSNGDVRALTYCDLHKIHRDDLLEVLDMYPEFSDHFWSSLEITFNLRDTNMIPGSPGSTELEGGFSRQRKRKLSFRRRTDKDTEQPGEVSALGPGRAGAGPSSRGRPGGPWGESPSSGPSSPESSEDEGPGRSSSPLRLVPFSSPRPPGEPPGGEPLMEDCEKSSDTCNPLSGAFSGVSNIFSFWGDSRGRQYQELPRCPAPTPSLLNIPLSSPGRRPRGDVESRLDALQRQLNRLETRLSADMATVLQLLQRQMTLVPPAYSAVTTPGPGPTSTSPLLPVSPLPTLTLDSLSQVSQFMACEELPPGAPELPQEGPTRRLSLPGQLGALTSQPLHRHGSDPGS

Row | Compound | hERG current change (%, negative = inhibition) at 1uM [%]
1 | C/C=C\C=C/C(=O)Nc1cccc(C2=NOC3(C2)C[C@H](C(N)=O)N(C(=O)CC)C3)c1 (stereo partly drawn) | -8.7
2 | CC(C)CC(OC(=O)c1nsc(Cl)c1Cl)C(=O)NCC1CCCO1 (stereo not drawn) | 7.21
3 | COc1cccc(CNC(=O)[C@@H](C)N2C(=O)N3CCc4c([nH]c5ccc(OC)cc45)C3(C)C2=O)c1 (stereo partly drawn) | 10.8
4 | COCC(C)n1c(C)cc(C(=O)COC(=O)c2n[nH]c3ccccc23)c1C (stereo not drawn) | 10
5 | Cc1ccc2ncccc2c1NS(=O)(=O)c1ccccc1 | 10.3
6 | O=C(NCc1ccc(N2CCCC2=O)cc1)C1CCC(=O)N(Cc2ccccc2F)C1 (stereo not drawn) | 1.12
7 | Cc1ccc(NC(=O)c2ccc3c(c2)S(=O)(=O)c2ccccc2C3=O)cc1S(=O)(=O)N1CCOCC1 | 9.15
8 | Cc1[nH]n(-c2nc(-c3cccc([N+](=O)[O-])c3)cs2)c(=O)c1C | 14.7
9 | O=C(Nc1ccc(Cl)c(Cl)c1)Nc1ccc([N+](=O)[O-])cn1 | 8.84
10 | Cc1cccc2c1CC(C)(C)NC2=C(C#N)C#N | 28.7
11 | Cc1ccc(OCCC(=O)OCc2csc(CC(=O)Nc3ccccc3C)n2)cc1 | 7.44
12 | Cc1ccc(S(=O)(=O)N2CCC(C(=O)OCC(=O)N3CCCC(C)C3)CC2)cc1C (stereo not drawn) | -1.14
13 | COc1ccc(C(CCN)Cc2ccccc2)cc1 (stereo not drawn) | 14.2
14 | CCc1ccc(NC(=O)COc2coc(CN3CCN(c4ccccc4)CC3)cc2=O)cc1 | 14.4
15 | COc1cccc(N2CCN(C(=O)c3cc4c(s3)-c3ccccc3OC4)CC2)c1 | -13.3
16 | O=C(NC1=NCCS1)c1cc(-c2ccc(F)cc2)nc2ccccc12 | 8.29
17 | Cc1nn2c(Nc3ccc(F)cc3)c3c(nc2c1-c1ccccc1)CCC3 | 13.8
18 | Cc1ccccc1NC(=S)NC(=O)c1cncc(Br)c1 | 2.94
19 | CC(/C=C/c1ccccc1)=N\NC(=O)c1ccc(Br)cc1 | 7.71
20 | c1ccn2cc(CSc3nnc4ccccn34)nc2c1 | 13.6
21 | Nc1ncnc(Oc2cccc3cccnc23)c1[N+](=O)[O-] | 19.3

Row | Compound | hERG current change (%, negative = inhibition) at 1uM [%]
22 | Cc1ccc(-n2c(=O)cc(N3CC(C)CC(C)C3)[nH]c2=O)cc1 (stereo not drawn) | 20.8
23 | CCS(=O)(=O)N1CCN(c2ccc(S(=O)(=O)N3CCOCC3)cc2)CC1 | 6.36
24 | CN(Cc1nc(-c2ccc(Cl)cc2)no1)C(=O)CCN1C(=O)[C@H]2CC=CC[C@H]2C1=O | 1.2
25 | COc1ccc(-n2c(SCC(=O)NC3CC3)nc3ccccc3c2=O)cc1OC | 13.2
26 | CCc1nnc(NC(=O)c2cnccn2)s1 | 9.02
27 | COc1ccc(C2CC(c3ccccc3)=NN2C(=O)CCCC(=O)O)cc1 (stereo not drawn) | 19.9
28 | C/C(CC(=O)Nc1ccccc1-c1ccccc1)=N\NC(=O)COc1ccc(C)cc1Br | 5.83
29 | COc1ccc(/C=C/C(=O)C2C(=O)C=C(C)OC2=O)cc1O (stereo not drawn) | 6.77
30 | S=C1CN=C(c2ccccc2)c2cc(Cl)ccc2N1 | 9
31 | Cc1ccc(SCC(=O)N2N=CCC2c2ccccc2)cc1 (stereo not drawn) | 1.32
32 | COc1cccc2sc(Nc3nnc(-c4ccccc4Cl)o3)nc12 | 12.7
33 | Oc1c(Br)cc(/C=N/NC(=S)NCC2CCCO2)cc1Br (stereo not drawn) | 13.5
34 | C=CCc1ccc(OCCCCNC2CCCC2)c(OC)c1.O=C(O)C(=O)O | -8.29
35 | CCOC(=O)CSc1nnc([C@H](Cc2ccccc2)NC(=O)OC(C)(C)C)o1 | -0.863
36 | Cc1ccc(C(=O)OCC(=O)Nc2ccc(Cl)cn2)s1 | 8.79
37 | CCn1c(Sc2ccc([N+](=O)[O-])cn2)nnc1-c1ccco1 | -23.8
38 | COc1ccc(N2C(=O)CNC2=S)cc1 | 8.58
39 | Cc1ccc(C)c(NS(=O)(=O)c2ccc(OCC(=O)NCc3ccccn3)cc2)c1 | 10
40 | Cc1ccc2c(CC(=O)NCCc3ccc(S(N)(=O)=O)cc3)coc2c1 | 7.43
41 | Cc1ccc(OCc2n[nH]c(=S)n2N)cc1C | 13.3
42 | CC1CC(C)CN(S(=O)(=O)CC23CCC(CC2=O)C3(C)C)C1 (stereo not drawn) | 15.4
